# Measurements as given in PubChem BioAssay AID1347073 (National Center for Advancing Translational Sciences (NCATS), 2019).
# The whole screen tested about 45,000 compounds, of which about 200 (0.44%) were called active. Another 7% or so got no clear call; they are omitted. Calls follow the shape of the dose curve; as a rule, active = well fitted activation curve with a large enough effect; inconclusive = small, poorly fitted or top-dose-only effect; inactive = no such curve, though single readings can be large or run the other way. Some of the results follow.
# Experiment: qHTS of TDP-43 Inhibitors: NCGC Sytravon Library Screen; also: nearly all actives have a fitted effect of over 55% in size; as to growth rescue (activation): 0% is about no effect
# Settings: yeast TDP-43 toxicity rescue, BacTiter-Glo growth, 24 h; series mostly up to 46.1 µM; growth rescue (activation): at the top concentration
# How it was run: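 TDP-43-expressing yeast, pregrown in raffinose, seeded at OD600 0.02 in galactose medium with compound for 24 hr at 30 deg C. Growth read by BacTiter-Glo luminescence, so rescue of toxicity appears as activation.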
# Potency is read from the fitted curve at half-maximal effect.
Compound,growth rescue (activation),Potency
COc1ccc(N2CC(C(=O)Nc3ccc4c(c3)OCCO4)CC2=O)cc1 (centres undefined),inactive: 2.74%,–
COc1ccc(CCNC(=O)CN2C(=O)NC3(CCCCC3)C2=O)cc1,inactive: 8.38%,–
CCOC(=O)c1ccc(-c2ccc(/C=C(\C#N)c3nc4ccc(C)cc4[nH]3)o2)cc1,inactive: 1.53%,–
N#C/C(=C(/O)CN1CCCC1)c1nc(-c2ccccc2)cs1,inactive: -6.55%,–
CN(Cc1ccccc1)c1nc(CN2CCOCC2)nc2scc(-c3ccccc3)c12,inactive: 8.32%,–
Cc1cccc2c1N(C(=O)CN1C(=O)c3ccccc3C1=O)C(C)(C)c1ssc(=S)c1-2,inactive: 13.2%,–
Cc1ccc(N2CC(C(=O)NCCN3CCOCC3)CC2=O)cc1 (centres undefined),inactive: -0.577%,–
CCN1CCC2(CC1)Oc1c(OC)cccc1C1CC(c3cccnc3)=NN12 (centres undefined),inactive: 0.904%,–
CCc1nnc(NC(=O)COc2ccc([N+](=O)[O-])cc2)s1,inactive: 4%,–
Nn1cnnc1SCC(=O)N(C1CCCCC1)C1CCCCC1,inactive: 7.89%,–
CC1Cc2ccccc2N1S(=O)(=O)c1cccc(C(=O)N2CCCCC2)c1 (centres undefined),inactive: -0.0385%,–
COc1ccc2[nH]c(=O)c(CN(C(=O)C3CCCO3)c3ccc(C)c(C)c3)cc2c1 (centres undefined),inactive: -2.66%,–
CC(=O)NC(=S)Nc1ccccc1N1CCCCC1,inactive: 19.8%,–
NC(=O)C1CCN(C2CC(=O)NC2=O)CC1 (centres undefined),inactive: 7.57%,–
CC(=O)Nc1ccc(S(=O)(=O)N2CCC(C(=O)O)CC2)cc1,inactive: 2.18%,–
Cc1sc2nc(SCCN(C)C)n(-c3ccccc3)c(=O)c2c1-c1ccc(F)cc1,inactive: -15.8%,–
CN(C)CCNC(=O)C(=O)c1c(-c2ccccc2)cc2ccccn12,inactive: -15.1%,–
CCC12C(=O)C(CC)(C(c3ccccc3)=C1c1ccccc1)[C@@H]1C(=O)N(c3ccccc3)C(=O)C12 (some centres undefined),inactive: 9.01%,–
O=C(Cn1c(=O)oc2cc(S(=O)(=O)N3CCCCCC3)ccc21)Nc1ccc(F)cc1F,inactive: 9.78%,–
CN(C(=O)CSc1nnc(Nc2ccccc2F)s1)C1CCS(=O)(=O)C1 (centres undefined),inactive: 0.896%,–
O=C(CSc1ccccc1)Nc1nc2ccccc2[nH]1,inactive: 8.32%,–
COCCNc1nc(NCc2cccc(OC)c2)c2sccc2n1,inactive: 10.8%,–
COc1cccc2c1OCC([C@@H]1C[C@H]3CN(Cc4cccc(Cl)c4)C(=O)[C@]34CCCN14)=C2,inactive: 8.68%,–
Cc1cccc(C(=O)OCC(=O)N(C)c2ccccc2)c1C,inactive: -25.9%,–
COc1cc(CC(=O)OCC(=O)Nc2sccc2C(N)=O)cc(OC)c1OC,inactive: 4.09%,–
O=C1N(Cc2cccc(Cl)c2)C[C@@H]2C[C@@H](c3cccn3-c3cccnc3)N3CCC[C@@]123,inactive: 8.38%,–

Compound,growth rescue (activation),Potency
Cc1cccc(C)c1OCc1cc(C(=O)N2CCCCCCC2)no1,inactive: 17.5%,–
O=[N+]([O-])c1cccc(/C=C/c2ccncc2)c1,inactive: 3.54%,–
C=CCn1c(C)cc(C2=NNC(=NCC)SC2)c1C,inactive: -19.4%,–
O=C1C=CC(=O)N1CCNc1ncc(C(F)(F)F)cc1Cl,inactive: -94.5%,–
Cc1ccc(SCC(=O)N2c3ccccc3Sc3ccccc32)cc1,inactive: 4.93%,–
CC(=O)Nc1ccc(NC(=O)C(C)OC(=O)C2(c3ccc(Cl)cc3)CCCC2)cc1 (centres undefined),inactive: 26.1%,–
COCCCn1c(-c2ccccc2Cl)n[nH]c1=S,inactive: -7.57%,–
Nc1nc(SCC(=O)Nc2cc(Cl)c(Cl)cc2Cl)n[nH]1,inactive: 7.87%,–
O=C(NC1CCCc2ccccc21)C(Cc1ccccc1)NS(=O)(=O)c1cccs1 (centres undefined),inactive: 28.7%,–
O=C(N/N=C/c1coc2ccccc2c1=O)c1cn(-c2ccccc2)nc1-c1ccc(F)cc1,inactive: 6.02%,–
COc1cc(NC(=O)c2cc(S(=O)(=O)N3CCCCC3)ccc2N2CCOCC2)cc(OC)c1OC,inactive: 1.81%,–
CCCN1CNC(=S)N(c2cccc(C)c2)C1,inactive: -13.7%,–
COCCn1c(SCC(=O)NCc2ccc(F)cc2)nc2ccccc21,inactive: 14.6%,–
Cc1cc(=O)n2c3ccccc3n(CC(O)CN3CCOCC3)c2c1C#N (centres undefined),inactive: -0.404%,–
Cc1cccc2nc(CSc3nncn3-c3ccccc3)cn12,inactive: -7.38%,–
CC(NC(=O)COC(=O)/C=C/c1ccc(Cl)cc1)c1ccccc1 (centres undefined),inactive: 10%,–
COc1cc(C(=O)Cc2nc3ccccc3n2C)cc(OC)c1OC,inactive: -18.6%,–
COc1ccc(NS(=O)(=O)c2c(F)cc(F)c(Cl)c2F)cc1S(=O)(=O)N1CCCCC1,inactive: -24.1%,–
O=C(O)c1ccccc1N/N=C/C1=C(N2CCOCC2)C(=C\c2ccccc2)/CC1,inactive: 14.2%,–
COc1cc(C(=O)OCc2cc(=O)c(O)co2)ccc1OC(F)F,inactive: 1.93%,–
Cn1c(CNC(=O)c2ccccc2F)nnc1SCC(=O)Nc1nncs1,inactive: 0.059%,–
Cc1cccc(N2CC(C(=O)Nc3nccs3)CC2=O)c1C (centres undefined),inactive: 8.24%,–
CN(C)c1ccc(C2CC(=O)C=C(Nc3ccccc3N)C2)cc1 (centres undefined),inactive: 0.0136%,–
CCc1nc2ccc(C(=O)NCCC(C)C)cn2c1N(C)Cc1nccs1,inactive: -13.4%,–
CC(NC(=O)COC(=O)CCc1ccc(S(=O)(=O)N2CCOCC2)cc1)C1CC2CCC1C2 (centres undefined),inactive: 1.99%,–
Nc1cc(=O)[nH]c(=O)n1CCCc1ccccc1,inactive: 4.74%,–

Compound,growth rescue (activation),Potency
O=C(Nc1cccc(S(=O)(=O)NC2=NCCCCC2)c1)c1cc(-c2ccccc2)nc2ccccc12,inactive: -17.4%,–
CCOC(=O)C1(Cc2ccccc2C(F)(F)F)CCN(C2CCN(C(C)C)CC2)CC1,inactive: -2.09%,–
Cc1ccc(S(=O)(=O)Nc2nc3ccc(N)cc3s2)cc1,inactive: -3.29%,–
Cc1ccc(N2C(=O)NC(NC(=O)C(C)(C)C)(C(F)(F)F)C2=O)cc1C (centres undefined),inactive: 9.05%,–
Fc1ccccc1-n1ncc2c1ncn1nc(Cc3ccccc3)nc21,–,active: 11.2 µM
COc1ccc(NS(=O)(=O)c2cc(NC(=O)C3CC3)ccc2N2CCCCC2)cc1,inactive: 29%,–
CCOC(=O)C1(C)CCN1C(=O)c1cccs1 (centres undefined),inactive: 1.8%,–
COc1ccc(OC)c(S(=O)(=O)Nc2cc(C(=O)O)ccc2N2CC3CC(C2)c2cccc(=O)n2C3)c1 (centres undefined),inactive: 0.409%,–
CN(CC(=O)Nc1ccc(Cl)cc1)C(=O)CCc1ccccc1,inactive: 31.3%,–
COc1ccc(C(=O)NCc2csc(C(C)C)n2)cc1OC1CCN(C(C)=O)CC1,inactive: 2.52%,–
CSCC[C@H](NC(=O)c1cccc(S(=O)(=O)N2CCCCCC2)c1)c1nc2ccccc2[nH]1,inactive: 10.1%,–
CC(=O)CC(=O)Nc1ncc(C(F)(F)F)cc1Cl,inactive: -28.5%,–
Cc1ccc(NC(=O)CCn2c(=O)[nH]c3ccsc3c2=O)cc1F,inactive: 4.25%,–
Cc1ccc(C2C(C(=O)c3sc(-c4ccccc4)nc3C)=C(O)C(=O)N2CCN(C)C)o1 (centres undefined),inactive: 25.9%,–
CCCS(=O)(=O)N1CCCC(C(=O)NC2CCCC(C)C2C)C1 (centres undefined),inactive: -16.4%,–
CCCOc1ccc(NC(N)=O)cc1OCCC,inactive: 39.6%,–
COc1ccc(CCN(C)CC(O)COc2ccc(C(C)=O)cc2OC)cc1OC (centres undefined),inactive: 13.8%,–
CSCCC(C(=O)NCc1cccs1)N1C(=O)c2ccccc2C1=O (centres undefined),inactive: 29.2%,–
CC(=O)c1c(C)[nH]c(C(=O)COC(=O)C2CC2)c1C,inactive: 23.3%,–
CCOC(=O)c1cccc(NC(=O)Nc2ccc(OCC)cc2)c1,inactive: 17.2%,–
O=C(CN(Cc1ccccc1F)S(=O)(=O)c1ccc(Cl)cc1)NCC1CCCO1 (centres undefined),inactive: -6.94%,–
CCCC(=O)OCCNc1cc(Sc2nc3ccccc3[nH]2)c2nonc2c1[N+](=O)[O-],inactive: -27.9%,–
CCS(=O)(=O)NCCNc1ccc([N+](=O)[O-])cc1,inactive: 1.23%,–
O=C(NCc1ccccc1)C(c1ccc(F)cc1)N(C(=O)c1csnn1)C1CC1 (centres undefined),inactive: -0.377%,–
N#Cc1ccccc1NC(=O)COc1c(Br)cc(Br)c2cccnc12,inactive: 1.22%,–
CN(C)C(CNC(=O)c1ccc(NC(=O)c2cccs2)cc1)c1ccccc1 (centres undefined),inactive: 9.49%,–

Compound,growth rescue (activation),Potency
COc1cccc(CNC(=O)c2cnc(-c3ccccn3)nc2C(F)(F)F)c1,inactive: 34.9%,–
Cc1ccc(Nc2cnn(C34CC5CC(CC(CC(=O)O)(C5)C3)C4)c(=O)c2Cl)c(Cl)c1,inactive: -10.4%,–
COc1cc(F)ccc1-c1csc(C(C)(O)c2ccc(F)c(F)c2)n1 (centres undefined),inactive: -90.4%,–
Cc1ccc(-c2nnn(CC(=O)N(C)C3CCCCC3)n2)o1,inactive: -4.49%,–
O=C(CSc1nc2ccccc2n1CC(=O)N1CCCCC1)N1CCCCC1,inactive: 14.3%,–
N#Cc1cccc(C(=O)Nc2cc(S(=O)(=O)N3CCOCC3)ccc2N2CCCC2)c1,inactive: -32.1%,–
Cc1cc(NC(=O)Nc2cccc(Cl)c2)n(C(C)(C)C)n1,inactive: 2.53%,–
CCOc1ncccc1C(=O)OCC(=O)Nc1cc(C(C)(C)C)ccc1OC,inactive: 19.4%,–
CSc1n[nH]c2nc3c(c(=O)n12)C1(CCCCC1)Cc1ccccc1-3,inactive: -5.73%,–
CCN(CC)S(=O)(=O)c1ccc(C)c(NC(=O)COC(=O)[C@@H]2CCCN2C(=O)c2cccs2)c1,inactive: 11.3%,–
COc1ccccc1/C=C/C(=O)Nc1ccc2c(c1)CCC2,inactive: 12%,–
CN=C1NN=C(c2cc(C)n(-c3c(C)n(C)n(-c4ccccc4)c3=O)c2C)CS1,inactive: 0.473%,–
CC1(C(=O)NS(=O)(=O)c2ccc(Cl)cc2)CCN1C(=O)c1ccccc1 (centres undefined),inactive: 20.3%,–
Cc1ccc2nc(SCC(=O)Nc3cccc(S(=O)(=O)N(C)C)c3)[nH]c2c1,inactive: 6.14%,–
CC(CC(=O)Nc1ccc2c(c1)c(=O)n(C)n2Cc1cccc(C(F)(F)F)c1)C(F)(F)F (centres undefined),inactive: 14%,–
COc1cc(/C=N/NC(=O)c2ccc(Cl)c(S(N)(=O)=O)c2)ccc1OCC(N)=O,inactive: 7.94%,–
Cc1ccc(Nc2nc(NCCO)c3ccccc3n2)cc1C,inactive: 16.2%,–
CC(C)(C)c1nnc(NC(=O)COc2ccc3c(c2)OCO3)s1,inactive: -15.5%,–
Clc1ccc(-c2csc(Nc3ccccc3)[n+]2Cc2ccco2)c(Cl)c1,inactive: 35.6%,–
CC1CCCC(NC(=O)CSc2n[nH]c(N)n2)C1C (centres undefined),inactive: 23.6%,–
Cc1ccc(N(C(=O)c2snc(C(N)=O)c2N)C(C(=O)NC2CCCC2)c2ccncc2)cc1 (centres undefined),inactive: -6.79%,–
CCCCNC(=O)COC(=O)c1cc(C)oc1C,inactive: 6.75%,–
O=C(Cn1ccc2ccccc2c1=O)NCC(=O)N1CCN(c2ccccc2F)CC1,inactive: 7.82%,–
CCn1c(C)cc(/C=C2/SC(=S)NC2=O)c1C,inactive: 3.23%,–
CCn1cc(C(=O)O)c(=O)c2cc(F)c(N3CCN(C(=S)NC(=O)c4ccc(F)cc4)CC3)cc21,inactive: -7.62%,–
O=C(NC1CCCCC1)C1CCCN1S(=O)(=O)c1ccc(F)cc1 (centres undefined),inactive: 15.5%,–
